Results published in the supplement of paper PMC8728848.
The list shows a part of the results.

Columns and labels:
Experiment in all cases: glycan array binding signal (z-score within array); higher = stronger binding
Conditions in all cases: glycan notation: IUPAC condensed, linker removed
[1] = target: Neu5Ac(a2-6)Gal(b1-4)GlcNAc(b1-2)Man(a1-3)[GlcNAc(b1-2)Man(a1-6)]Man(b1-4)GlcNAc(b1-4)GlcNAc
How it was run: (§1)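 The Consortium for Functional Glycomics database supplied 3228 glycan arrays, of which those lacking an available protein sequence were dropped. The binding signal, a within-array Z-score, was averaged across arrays of the same protein sequence and across linkers. Negative scores can be read as non-binding.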

[2] = target: Neu5Ac(a2-6)Gal(b1-4)GlcNAc(b1-2)Man(a1-3)[GlcNAc(b1-2)Man(b1-4)GlcNAc(b1-2)Man(a1-6)]Man(b1-4)GlcNAc(b1-4)GlcNAc
How it was run: as §1

[3] = target: Neu5Ac(a2-6)Gal(b1-4)GlcNAc(b1-2)Man(a1-3)[Man(a1-6)]Man(b1-4)GlcNAc(b1-4)GlcNAc
How it was run: as §1

[4] = target: Neu5Ac(a2-6)Gal(b1-4)GlcNAc(b1-2)Man(a1-3)[Neu5Ac(a2-6)Gal(b1-4)GlcNAc(b1-2)Man(a1-6)]Man(b1-4)GlcNAc(b1-4)GlcNAc
How it was run: as §1

[5] = target: Neu5Ac(a2-6)Gal(b1-4)GlcNAc(b1-2)Man(a1-6)Man(b1-4)GlcNAc(b1-4)GlcNAc
How it was run: as §1

[6] = target: Neu5Ac(a2-6)Gal(b1-4)GlcNAc(b1-2)Man(a1-6)[Gal(b1-4)GlcNAc(b1-2)Man(a1-3)]Man(b1-4)GlcNAc(b1-4)GlcNAc
How it was run: as §1

[7] = target: Neu5Ac(a2-6)Gal(b1-4)GlcNAc(b1-2)Man(a1-6)[GlcNAc(b1-2)Man(a1-3)]Man(b1-4)GlcNAc(b1-4)GlcNAc
How it was run: as §1

[8] = target: Neu5Ac(a2-6)Gal(b1-4)GlcNAc(b1-2)Man(a1-6)[Man(a1-3)]Man(b1-4)GlcNAc(b1-4)GlcNAc
How it was run: as §1

[9] = target: Neu5Ac(a2-6)Gal(b1-4)GlcNAc(b1-3)Gal(b1-3)GlcNAc
How it was run: as §1

[10] = target: Neu5Ac(a2-6)Gal(b1-4)GlcNAc(b1-3)Gal(b1-4)GlcNAc
How it was run: as §1

[11] = target: Neu5Ac(a2-6)Gal(b1-4)GlcNAc(b1-3)Gal(b1-4)GlcNAc(b1-3)Gal(b1-4)GlcNAc
How it was run: as §1

[12] = target: Neu5Ac(a2-6)Gal(b1-4)GlcNAc(b1-3)Gal(b1-4)[Fuc(a1-3)]GlcNAc(b1-3)Gal(b1-4)[Fuc(a1-3)]GlcNAc
How it was run: as §1

[13] = target: Neu5Ac(a2-6)Gal(b1-4)GlcNAc(b1-3)GalNAc
How it was run: as §1

[14] = target: Neu5Ac(a2-6)Gal(b1-4)GlcNAc6S
How it was run: as §1

Neu5Ac(a2-6)GalNAc = target: Neu5Ac(a2-6)GalNAc
How it was run: as §1

[15] = target: Neu5Ac(a2-6)GalNAc(b1-4)GlcNAc
How it was run: as §1

[16] = target: Neu5Ac(a2-6)GlcNAc(b1-4)GlcNAc
How it was run: as §1

[17] = target: Neu5Ac(a2-6)GlcNAc(b1-4)GlcNAc(b1-4)GlcNAc
How it was run: as §1

Neu5Ac(a2-8)Neu5Ac = target: Neu5Ac(a2-8)Neu5Ac
How it was run: as §1

[18] = target: Neu5Ac(a2-8)Neu5Ac(a2-3)Gal(b1-3)GalNAc(b1-4)[Neu5Ac(a2-8)Neu5Ac(a2-3)]Gal(b1-4)Glc
How it was run: as §1

[19] = target: Neu5Ac(a2-8)Neu5Ac(a2-3)Gal(b1-4)Glc
How it was run: as §1

[20] = target: Neu5Ac(a2-8)Neu5Ac(a2-3)[Gal(b1-3)GalNAc(b1-4)]Gal(b1-4)Glc
How it was run: as §1

[21] = target: Neu5Ac(a2-8)Neu5Ac(a2-3)[GalNAc(b1-4)]Gal(b1-4)Glc
How it was run: as §1

[22] = target: Neu5Ac(a2-8)Neu5Ac(a2-8)Neu5Ac
How it was run: as §1

[23] = target: Neu5Ac(a2-8)Neu5Ac(a2-8)Neu5Ac(a2-3)Gal(b1-4)Glc
How it was run: as §1

[24] = target: Neu5Ac(a2-8)Neu5Ac(a2-8)Neu5Ac(a2-3)[GalNAc(b1-4)]Gal(b1-4)Glc
How it was run: as §1

[25] = target: Neu5Ac(a2-8)Neu5Ac(a2-8)Neu5Ac(a2-8)Neu5Ac(a2-3)[GalNAc(b1-4)]Gal(b1-4)Glc
How it was run: as §1

[26] = target: Neu5Ac(b2-6)Gal(b1-4)GlcNAc
How it was run: as §1

Neu5Ac(b2-6)GalNAc = target: Neu5Ac(b2-6)GalNAc
How it was run: as §1

[27] = target: Neu5Ac9Ac(a2-3)Gal(b1-3)GlcNAc
How it was run: as §1

[28] = target: Neu5Ac9Ac(a2-3)Gal(b1-4)GlcNAc
How it was run: as §1

[29] = target: Neu5Ac9Ac(a2-6)Gal(b1-4)GlcNAc
How it was run: as §1

[30] = target: Neu5Gc(a2-3)Gal(b1-3)GlcNAc
How it was run: as §1

[31] = target: Neu5Gc(a2-3)Gal(b1-3)[Fuc(a1-4)]GlcNAc
How it was run: as §1

Neu5Gc(a2-3)Gal(b1-4)Glc = target: Neu5Gc(a2-3)Gal(b1-4)Glc
How it was run: as §1

[32] = target: Neu5Gc(a2-3)Gal(b1-4)GlcNAc
How it was run: as §1

[33] = target: Neu5Gc(a2-3)Gal(b1-4)[Fuc(a1-3)]GlcNAc
How it was run: as §1

[34] = target: Neu5Gc(a2-6)Gal(b1-4)GlcNAc
How it was run: as §1

Neu5Gc(a2-6)GalNAc = target: Neu5Gc(a2-6)GalNAc
How it was run: as §1

[35] = target: Neu5Gc(b2-6)Gal(b1-4)GlcNAc
How it was run: as §1

B1: Gz-CVNH (Gibberella zeae) (protein)
chain: MGSSHHHHHHSSGLVPRGSHMGNFHESSNNIWLEDGHILHAECGNGEGDYVESTLDLDYYIGNDDGSFSWGGENFSGSASNITLDIEGDDNIPVLRAELNPMDGDPVEANVNLSERIGNDCGTLIFLA
Question: B1 was tested. Which “glycan array binding signal (z-score)” value [1] did it give?
Answer: Its value is -0.048.

Question: And the “glycan array binding signal (z-score)” value [2]?
Answer: The value was -0.09.

Question: What about the “glycan array binding signal (z-score)” value [3] of the same binder?
Answer: Its value is -0.122.

Question: And the “glycan array binding signal (z-score)” value [4]?
Answer: Its value is -0.097.

Question: What about the “glycan array binding signal (z-score)” value [5] of the same binder?
Answer: Its value is -0.134.

Question: What about the “glycan array binding signal (z-score)” value [6] of the same binder?
Answer: The value was -0.098.

Question: What about the “glycan array binding signal (z-score)” value [7] of the same binder?
Answer: The value was -0.097.

Question: What about the “glycan array binding signal (z-score)” value [8] of the same binder?
Answer: The value was -0.1.

Question: What about the “glycan array binding signal (z-score)” value [9] of the same binder?
Answer: Its value is -0.109.

Question: And the “glycan array binding signal (z-score)” value [10]?
Answer: Its value is -0.165.

Question: What about the “glycan array binding signal (z-score)” value [11] of the same binder?
Answer: The value was -0.154.

Question: What about the “glycan array binding signal (z-score)” value [12] of the same binder?
Answer: Its value is -0.129.

Question: What about the “glycan array binding signal (z-score)” value [13] of the same binder?
Answer: The value was -0.117.

Question: What about the “glycan array binding signal (z-score)” value [14] of the same binder?
Answer: The value was -0.163.

Question: And the “glycan array binding signal (z-score)” value (Neu5Ac(a2-6)GalNAc)?
Answer: The value was -0.153.

Question: What about the “glycan array binding signal (z-score)” value [15] of the same binder?
Answer: The value was -0.166.

Question: What about the “glycan array binding signal (z-score)” value [16] of the same binder?
Answer: The value was -0.16.

Question: What about the “glycan array binding signal (z-score)” value [17] of the same binder?
Answer: Its value is -0.14.

Question: What about the “glycan array binding signal (z-score)” value (Neu5Ac(a2-8)Neu5Ac) of the same binder?
Answer: The value was -0.124.

Question: And the “glycan array binding signal (z-score)” value [18]?
Answer: Its value is -0.156.

Question: And the “glycan array binding signal (z-score)” value [19]?
Answer: The value was -0.088.

Question: And the “glycan array binding signal (z-score)” value [20]?
Answer: Its value is -0.119.

Question: And the “glycan array binding signal (z-score)” value [21]?
Answer: The value was -0.125.

Question: And the “glycan array binding signal (z-score)” value [22]?
Answer: Its value is -0.155.

Question: What about the “glycan array binding signal (z-score)” value [23] of the same binder?
Answer: Its value is -0.128.

Question: And the “glycan array binding signal (z-score)” value [24]?
Answer: Its value is -0.153.

Question: And the “glycan array binding signal (z-score)” value [25]?
Answer: Its value is -0.142.

Question: What about the “glycan array binding signal (z-score)” value [26] of the same binder?
Answer: Its value is -0.152.

Question: What about the “glycan array binding signal (z-score)” value (Neu5Ac(b2-6)GalNAc) of the same binder?
Answer: The value was -0.108.

Question: And the “glycan array binding signal (z-score)” value [27]?
Answer: The value was -0.143.

Question: And the “glycan array binding signal (z-score)” value [28]?
Answer: Its value is -0.13.

Question: What about the “glycan array binding signal (z-score)” value [29] of the same binder?
Answer: The value was -0.125.

Question: And the “glycan array binding signal (z-score)” value [30]?
Answer: The value was -0.126.

Question: And the “glycan array binding signal (z-score)” value [31]?
Answer: The value was -0.134.

Question: And the “glycan array binding signal (z-score)” value (Neu5Gc(a2-3)Gal(b1-4)Glc)?
Answer: Its value is -0.113.

Question: And the “glycan array binding signal (z-score)” value [32]?
Answer: Its value is -0.091.

Question: And the “glycan array binding signal (z-score)” value [33]?
Answer: Its value is -0.121.

Question: What about the “glycan array binding signal (z-score)” value [34] of the same binder?
Answer: The value was -0.165.

Question: And the “glycan array binding signal (z-score)” value (Neu5Gc(a2-6)GalNAc)?
Answer: The value was -0.142.

Question: What about the “glycan array binding signal (z-score)” value [35] of the same binder?
Answer: Its value is -0.124.
